Consider 22 molecules from publication PMC12136788.

The list shows a part of the results.

To fix the notation:
B1: ENSG00000136451:be:win_3001|3pUTR|ENSG00000136451|bound_else_gene|NA|bound_elsewhere_windowed (ssRNA)
RNA: GGGAGUUCUACAGUCCGACGAUCUGGUUUUUUUCAUUUUUUAAUCAUUGCAGUUAAGAGAAAUGGAAAUUAGUUGUGUUAAUCUUGCAGAAUGUUUGCAGGACUGACUAUCAAACUGGAUGAUUUCCAUUUAUACCCUACUGUCAACAGAGGAUUGAGCAUCA
B2: chr10:96238888:96239129:-|three_prime_utr|ENSG00000095585|control|control|control (ssRNA)
RNA: GGGAGUUCUACAGUCCGACGAUCAGUGUGGCCCAACAGGAUCUUCUAAGCCUUUGCAACACAAAGUUUGAUUCCCAGCAAGAUAGCAUCAACCUCAUCUGGAGCUUGUUAGAAAUGCAGAAUCUUGGCCCCACCCUAGAACUACAACAGAGGAUUGAGCAUCA
B3: chr1:153933785:153933886:-|CDS|ENSG00000198837|msi1|total|mutant (ssRNA)
RNA: GGGAGUUCUACAGUCCGACGAUCGGGAAGUUGGUGCAGAGGCUGGGGUCCAUCUUCCCUCAUUCUUUUCUGUGCUGCAGUGACCGAGGCCUUGGGGGUCCUGGAACCCCGGGGAUCACCUGUGCCCUGGCACGAUGGAAGUCUCAACAGAGGAUUGAGCAUCA
B4: chr11:69651622:69651678:+|3pUTR|ENSG00000110092|msi1_unk|total|mutant (ssRNA)
RNA: GGGAGUUCUACAGUCCGACGAUCUUAUACCCCAAUAAUCAACUCGUUUUUAUAUUAAUGUACUUGUUUCUCUGUUGUAAGAACCGGCAUUAACACAAAGGAGGCGUCUCGGGAGAGGAUCCGGUUCCAUCCUUUACGUGUUUACAACAGAGGAUUGAGCAUCA
B5: chrX:14865087:14865190:-|CDS|ENSG00000181544|unk|total|mutant (ssRNA)
RNA: GGGAGUUCUACAGUCCGACGAUCAUAUUUUUUACUAAUCCUUCACAGUACUAAUAAAUUUGAAAUGCGUUUGAGUUUUAAACCCGGCUAUGAGAUGAAGGAUGGCCUAAGGGUCCUUAAUGGCCCUUUAAUUUUAUGGAGGCACAACAGAGGAUUGAGCAUCA
B6: chr3:105576037:105576138:+|3pUTR|ENSG00000170017|msi1|total|mutant (ssRNA)
RNA: GGGAGUUCUACAGUCCGACGAUCCUCCGUUUAAUAAAAGCUUCCGCCGUGCAUUGGUAUGGAUUAAAUGCAUAAAAUAUUCUCCGACUCGAUGCUGUAUAAAAUAUUAUGGGAAAAAAAGAAAAUACGUUAUUUUGCCUCUAACAACAGAGGAUUGAGCAUCA
B7: chr12:39553410:39553513:-|3pUTR|ENSG00000173208|unk|FALSE|unique (ssRNA)
RNA: GGGAGUUCUACAGUCCGACGAUCUAAGAUUCAAACUUUGAGUGACAUUUAGUCCAUUUAUGGUUGAUAUUAGGUUUAAUAGCUAGAAUUCAAAUUGAUUAUUGCUAGUGGCCAACUAAACCUGUACAAAAUAGCUGACAGUUUCAACAGAGGAUUGAGCAUCA
B8: chr6:32841530:32841735:-|CDS|ENSG00000204264|control|control|control (ssRNA)
RNA: GGGAGUUCUACAGUCCGACGAUCACGGGUAGUGGGAACACUUAUGCCUACGGGGUCAUGGACAGUGGCUAUCGGCCUAAUCUUAGCCCUGAAGAGGCCUAUGACCUUGGCCGCAGGGCUAUUGCUUAUGCCACUCACAGAGACCAACAGAGGAUUGAGCAUCA
B9: chr19:45711045:45711146:-|3pUTR|ENSG00000177051|msi1|FALSE|bound_elsewhere (ssRNA)
RNA: GGGAGUUCUACAGUCCGACGAUCGAAUUGGGGGCUGUCAGGUCACAGGUGGGAUCUGGCAUUUUUUUAUGACAGUCCAUUUCUAGAUGGUUUGCCUAUUAAAGAAGUGGGGGGGAAAUACUGUUUUCUCCUUAACCUCAAGCUCAACAGAGGAUUGAGCAUCA
B10: chr1:13115521:13116400:-|CDS|ENSG00000275774|control|control|control (ssRNA)
RNA: GGGAGUUCUACAGUCCGACGAUCGAACAGAGCAAACAAGAGGUAGAGGUGAAAAAUGCUAAGUCAGAAGAGGAGCAGAGCAGUAGCUCCAUGAAGAAAGAUGAGACUCAUGUAAAGAUGGAGUCUGAGGGGGGUGCAGAAGACCAACAGAGGAUUGAGCAUCA
B11: chrX:53432280:53432385:-|CDS|ENSG00000072506|unk|FALSE|unique (ssRNA)
RNA: GGGAGUUCUACAGUCCGACGAUCUGAGAAGGAUGUGCAAACAGCUCUGGCUCUAGCAAAAGGAAAGUUUGGCCGUGUGGAUGUAGCUGUCAACUGUGCAGGCAUCGCGGUGGCUAGCAAGACGUACAACUUAAAGAAGGGCCACAACAGAGGAUUGAGCAUCA
B12: chrX:100644401:100644502:+|5pUTR|ENSG00000102359|unk|FALSE|bound_elsewhere (ssRNA)
RNA: GGGAGUUCUACAGUCCGACGAUCUUAACAGAAUCCCGGAGGCCGGGACAGACCAGGAGCCACUCGUUCUAGGAAUGUUAAAGUAGAAGGUUUUUUCCAAUUGAUGAGAGGAGCAGAGAGGAAGGAGAAAGAGGAGGAGAGAGACAACAGAGGAUUGAGCAUCA
B13: chr19:45489345:45489553:-|CDS|ENSG00000125744|control|control|control (ssRNA)
RNA: GGGAGUUCUACAGUCCGACGAUCAGGACGUCAGGAGUGGUCUUCACAGGCCUGAUGGUCUCCCUCCUCUGCCUCCUGCACUUUAGCAUCGUGUCCGUGGCCGCGCACUUGGCUCUGUUGCUGCUCUGCGGCACCAUCUCUCUCCAACAGAGGAUUGAGCAUCA
B14: chr19:35623609:35623710:+|3pUTR|ENSG00000249115|unk|FALSE|unique (ssRNA)
RNA: GGGAGUUCUACAGUCCGACGAUCGCCUUCUAGUUUGUAUAGUUUCUUUUUUUACAUGUAAAUCAGCCAUUUGGAAUUUAUCCUAGCACAUGGAUCCAAUUUUGUCUUAUUUUACAUAUAUCCUAGUAGCACUUACUGAAAUUCCAACAGAGGAUUGAGCAUCA
B15: chr14:99169286:99174150:-|three_prime_utr|ENSG00000127152|control|control|control (ssRNA)
RNA: GGGAGUUCUACAGUCCGACGAUCAAUUCCUUUAAGAGAUUUUGUUGGGUAUCCAUCCCUUCUUUGUUUUUUUUUUAACCCGGUAGUAGCCUGAGCAAUGACUCGCAAGCAAUGUUAGAGGGGAAGCAUAUCUUUUAAAUUAUACAACAGAGGAUUGAGCAUCA
B16: chr10:86890108:86890218:+|CDS|ENSG00000107779|unk|FALSE|unique (ssRNA)
RNA: GGGAGUUCUACAGUCCGACGAUCUCAUGGCACUGGGAUGAAAUCAGACUCCGACCAGAAAAAGUCAGAAAAUGGAGUAACCUUAGCACCAGAGGAUACCUUGCCUUUUUUAAAGUGCUAUUGCUCAGGGCACUGUCCAGAUGACAACAGAGGAUUGAGCAUCA
B17: chr2:101892430:101892531:+|3pUTR|ENSG00000071054|msi1|total|mutant (ssRNA)
RNA: GGGAGUUCUACAGUCCGACGAUCCCAUCCGAGGUUGAUGGGGCAACUGCAGCCCAUGACACAAGAUCUCAUUGUUCUCGAUGCCGAGGGGUUGGCCGCAGACAGGUGGUUACAUCCGAACCGUCACACAAACUGUUCAGUGUUCAACAGAGGAUUGAGCAUCA
B18: chr3:52708059:52708100:+|3pUTR|ENSG00000114902|msi1_unk|total|mutant (ssRNA)
RNA: GGGAGUUCUACAGUCCGACGAUCACACAAGUAUGAAGUUUCUUUCAGGUGUAAAUAAUGAAAAAUAAAUGCCUCAUAAAUGACCGUACAAUGUAACUAUCAAAGUUUUAUAAUUCAUUAUGAGUUAACCAUUUUAAUGUUUCCCAACAGAGGAUUGAGCAUCA
B19: chr10:70774212:70774357:-|CDS|ENSG00000166220|control|control|control (ssRNA)
RNA: GGGAGUUCUACAGUCCGACGAUCAAAAGACCUCGCUCUGGGACUCCUGCAGACAGCAGUGGCUCAGCUCCUUCCCCAGCCCCUAGUCUCCAUCCCUACAGAAAAGCUCCUAAGCCAGCUUCCAGAAGUGCAUGAACCUCCUCACAACAGAGGAUUGAGCAUCA
B20: chr11:130144177:130144243:+|3pUTR|ENSG00000084234|msi1_unk|total|mutant (ssRNA)
RNA: GGGAGUUCUACAGUCCGACGAUCAUGAGGGUGUCCGCUGCUGCUUUCCUUCGGAAUCCAGUGCUUCCACAGAGAUCCGCCUGCCGCUUAUAUUUGACAUUCUUCACUGUCUGUUGUUUACCUACCGCCGCUUUUUACCGUUCACAACAGAGGAUUGAGCAUCA
B21: chr17:67340809:67340863:-|CDS_3pUTR|ENSG00000197170|msi1_unk|FALSE|overlapping (ssRNA)
RNA: GGGAGUUCUACAGUCCGACGAUCACAAAACUACGCAUCUCAUAGCCAAAGAGGAGAUGAUACAUAAUCUACAAUAAGGGUCUUAGUGCUUUAGAAAAAAGUUAAAAUUGGAAGUCAUUAAAAAAAGACUGUUAUAAUGGUGUACAACAGAGGAUUGAGCAUCA
B22: chr1:155134173:155134274:+|3pUTR|ENSG00000169242|msi1|total|mutant (ssRNA)
RNA: GGGAGUUCUACAGUCCGACGAUCGCCACUUUCAGAGCCCCCAGCCCUGGGAACCACUCCCACCACAGGCAUAAGCUAUCACCCCGCAGCCUCAAAACGGGUCAGUAUUAAGGUUUUCAACCGGAAGGAGGCCAACCAGCCCGACAACAGAGGAUUGAGCAUCA

This test addresses MSI1 full-length (mouse, UniProt Q61474 1-362). As to the kind of experiment: nsRBNS (natural sequence RNA bind-n-seq); RBNS binding buffer (assumed for nsRBNS): 25 mM Tris pH 7.5, 150 mM KCl, 3 mM MgCl2, 0.01% Triton X-100, 500 ug/ml BSA, 20 U/ml SUPERase-In, 4 C; UNK is unkempt and MSI1 is Musashi-1; names of the RNAs are library labels; protein concentration not given here; high values mean tight binding.
Chain of UniProt Q61474 (Q61474 whole entry): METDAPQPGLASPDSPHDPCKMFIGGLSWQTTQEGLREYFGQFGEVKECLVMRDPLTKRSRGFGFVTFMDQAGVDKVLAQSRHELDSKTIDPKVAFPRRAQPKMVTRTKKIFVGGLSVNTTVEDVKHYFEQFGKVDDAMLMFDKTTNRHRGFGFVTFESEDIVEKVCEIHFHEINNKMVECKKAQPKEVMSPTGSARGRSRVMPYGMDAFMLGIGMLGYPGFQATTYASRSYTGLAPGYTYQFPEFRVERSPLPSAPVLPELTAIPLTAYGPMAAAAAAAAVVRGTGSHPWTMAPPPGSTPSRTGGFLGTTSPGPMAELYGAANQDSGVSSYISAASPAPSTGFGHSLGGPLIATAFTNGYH
For the molecule B1, the binding signal was found to be 0.33 enrichment R.
In the case of B2 it was 0.628 enrichment R; in that of B3, 0.518 enrichment R.
On to B4, for which the binding signal is 0.776 enrichment R.
In the case of B5 it was 0.443 enrichment R.
In the case of B6 it was 0.852 enrichment R; in that of B7, 5.44 enrichment R.
In the case of B8 it was 0.269 enrichment R; in that of B9, 0.4 enrichment R; in that of B10, 0.695 enrichment R.
Turning to B11, the binding signal amounted to 0.452 enrichment R.
Take B12: the binding signal was found to be 1.25 enrichment R.
For the molecule B13, the binding signal was 0.564 enrichment R.
In the case of B14 it was 7.14 enrichment R; in that of B15, 3.47 enrichment R.
In the case of B16 it was 0.299 enrichment R; in that of B17, 0.345 enrichment R; in that of B18, 0.7 enrichment R.
The molecule B19 returned a binding signal of 1.1 enrichment R.
In the case of B20 it was 0.557 enrichment R; in that of B21, 6.28 enrichment R; in that of B22, 0.741 enrichment R.
